Data on 58 compounds can be found in paper PMC4336329 (PLoS ONE, 2015).

Structures are written as SMILES. Screen size: about 310,000 compounds; about 14,000 (4.5%) showed an effect of 50% or more. Effects have a minus sign here. The list shows a part of the results.
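Further: peak tail current of the secondary pulse compared with the same well before compound.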

Sequence of human ether-à-go-go-related gene (hERG) potassium channel (Q12809 whole entry, looked up): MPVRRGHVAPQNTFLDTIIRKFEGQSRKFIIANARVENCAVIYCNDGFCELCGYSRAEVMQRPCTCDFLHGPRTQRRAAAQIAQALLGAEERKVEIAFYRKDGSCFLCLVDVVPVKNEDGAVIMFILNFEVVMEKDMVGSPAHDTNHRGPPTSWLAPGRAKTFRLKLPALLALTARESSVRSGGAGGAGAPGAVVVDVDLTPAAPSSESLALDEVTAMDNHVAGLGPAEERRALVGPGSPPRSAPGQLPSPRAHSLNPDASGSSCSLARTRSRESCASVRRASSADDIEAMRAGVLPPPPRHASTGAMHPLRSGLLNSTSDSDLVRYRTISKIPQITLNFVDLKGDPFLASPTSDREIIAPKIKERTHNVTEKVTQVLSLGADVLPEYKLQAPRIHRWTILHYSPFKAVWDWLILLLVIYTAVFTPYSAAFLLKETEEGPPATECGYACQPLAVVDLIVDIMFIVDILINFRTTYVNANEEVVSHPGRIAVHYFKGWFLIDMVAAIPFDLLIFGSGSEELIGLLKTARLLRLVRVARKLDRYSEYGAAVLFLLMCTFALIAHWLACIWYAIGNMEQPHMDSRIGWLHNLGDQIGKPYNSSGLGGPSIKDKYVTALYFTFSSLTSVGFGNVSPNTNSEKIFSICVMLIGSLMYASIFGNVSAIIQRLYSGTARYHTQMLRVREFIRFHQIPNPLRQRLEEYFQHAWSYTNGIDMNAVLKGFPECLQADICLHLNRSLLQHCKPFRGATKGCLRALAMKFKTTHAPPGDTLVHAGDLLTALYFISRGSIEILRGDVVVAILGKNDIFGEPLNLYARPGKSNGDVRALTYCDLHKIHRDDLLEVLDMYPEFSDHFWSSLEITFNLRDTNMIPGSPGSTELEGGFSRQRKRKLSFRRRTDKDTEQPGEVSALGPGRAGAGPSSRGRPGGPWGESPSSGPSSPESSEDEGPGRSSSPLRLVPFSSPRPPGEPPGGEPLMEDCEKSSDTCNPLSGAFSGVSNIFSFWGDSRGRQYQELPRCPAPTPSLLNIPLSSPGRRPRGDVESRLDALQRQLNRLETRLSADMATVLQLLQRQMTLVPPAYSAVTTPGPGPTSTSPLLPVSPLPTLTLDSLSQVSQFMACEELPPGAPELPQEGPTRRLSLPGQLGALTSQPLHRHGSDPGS

The assay has as its target human ether-à-go-go-related gene (hERG) potassium channel (human, UniProt Q12809). Briefly: primary screen, population patch clamp on CHO cells stably expressing hERG.
Turning to `Cc1ccc(Cl)c2sc(NC(=O)C3CC3)nc12`, the “hERG current change (%, negative = inhibition) at 10uM” value amounted to 5.85%. Turning to `CCn1c(/C=C/c2cccc([N+](=O)[O-])c2)nc2ccccc2c1=O`, the “hERG current change (%, negative = inhibition) at 10uM” value was 7.29%. In the case of `COC(=O)c1ccc(C(=O)Nc2ccc3nc(-c4cccnc4)[nH]c3c2)cc1` it was 14.9%; in that of `O=C(CNC(=O)c1ccco1)Nc1cccc(Cl)c1`, -10.8%; in that of `COc1ccc(Cl)cc1C(=O)Nc1ccc2c(c1)OCCO2`, 11%. In the case of `CCn1cc(C(=O)O)c(=O)c2cc(F)c(N3CCNCC3)cc21` it was 3.07%; in that of `Cc1nc2c(cnn2-c2ccccc2Cl)c(=O)n1-c1ccc(N2CCC(C)CC2)cc1`, 13.5%. As to `COc1ccc(NC(=O)CSc2nc3ccccc3c(=O)n2CCCO)cn1`, the “hERG current change (%, negative = inhibition) at 10uM” value is reported as -47.8%. With `CCOc1ccccc1CN1CCN(Cc2ccc(C)o2)C(CCO)C1` (stereo not shown) the figure was -12.9%; with `NC(=O)CSc1nnc(-c2ccncc2)o1`, 16.7%. With `CN1CCN(c2ccc(NC(=O)c3ccc([N+](=O)[O-])o3)cc2Cl)CC1` the figure was -57.3%; with `CC(=O)Oc1ccccc1-c1nc(C)nc(N(C)C(C)=O)n1`, 3.81%. With `Cc1ccc(NC(=O)Nc2ccc(F)cc2)nc1` the figure was -6.78%; with `CCCCCCC(=O)c1c(C)[nH]c(C(=O)OCC)c1C`, 13.5%; with `C=CCOc1nc2c(c(=O)n(C)c(=O)n2C)n1Cc1ccccc1`, -16.6%. Turning to `COCCNC(=O)CSc1ncnc2sccc12`, the “hERG current change (%, negative = inhibition) at 10uM” value was 23.9%. Take `Cc1ccc(C)c(Cn2c(C(C)O)nc3ccccc32)c1` (stereo not shown): the “hERG current change (%, negative = inhibition) at 10uM” value amounted to 3.5%. Regarding `O=C(Cc1ccc([N+](=O)[O-])cc1)N1N=C2CCCCC2C1(O)C(F)(F)F` (stereo not shown), the “hERG current change (%, negative = inhibition) at 10uM” value is reported as -19.7%. With `CCOc1ccccc1C(=O)NCC(=O)NCC1CCCCC1` the figure was 12.2%; with `Cc1cccc(/C(N)=N/OC(=O)Cc2ccccc2)c1`, 37.9%. In the case of `COc1ccc(CN(C)C(=O)c2ccc(OCC(=O)N3CCOCC3)c(OC)c2)cc1`, the “hERG current change (%, negative = inhibition) at 10uM” value is 2.93%. With `CN(C)C1=NP(N(C)C)(N(C)C)=NC(c2ccccc2)=N1` the figure was -8.47%; with `CCOc1cc(NC(=S)NCC(C)C)c(OCC)cc1NC(=O)c1ccco1`, 10.4%. For `COc1ccc(CN2C(=O)CCC2(C)C(=O)NC2CCCCCC2)cc1` (stereo not shown), the “hERG current change (%, negative = inhibition) at 10uM” value is on record as -13.8%. In the case of `Cc1cc(C)c2[nH]c(C)c(CN3CCCCCC3)c(=O)c2c1` it was -14.6%; in that of `CCOc1ccccc1NC(=O)C(OC(=O)c1cc(C)oc1C)c1ccccc1` (stereo not shown), 4.39%. As to `COc1cccc(C(=O)NCCS(=O)(=O)N2CCCCC2)c1`, the “hERG current change (%, negative = inhibition) at 10uM” value is 6.47%. As for `CC(=O)c1c(C)n(CC2CCCO2)c2ccc(O)cc12` (stereo not shown), the “hERG current change (%, negative = inhibition) at 10uM” value was 17.4%.

Consider `COc1ccc(NC(=O)c2c(C)nn(Cc3ccccc3)c2Cl)cc1S(=O)(=O)N1CCOCC1`, for which the “hERG current change (%, negative = inhibition) at 10uM” value is 1.76%. Regarding `CC(C)OCC(O)CN1CCN(CC(O)COc2ccc3c(c2)OCO3)CC1` (stereo not shown), the “hERG current change (%, negative = inhibition) at 10uM” value is -33.3%. As to `COc1ccc(NC(=O)c2ccccc2NS(C)(=O)=O)cc1OC`, the “hERG current change (%, negative = inhibition) at 10uM” value is recorded as 20.1%. Turning to `CC(NC(=S)Nc1cccc(C(F)(F)F)c1)C(C)(C)C` (stereo not shown), the “hERG current change (%, negative = inhibition) at 10uM” value turned out to be 5.04%.

Consider `CC1(C)Cc2c(sc3nc(-c4cc5ccccc5o4)n(N)c(=O)c23)CO1`, for which the “hERG current change (%, negative = inhibition) at 10uM” value is -1.17%. In the case of `CCN1C(=O)C(CC(=O)Nc2ccccc2Cl)N(NC(=O)c2cccc(F)c2)C1=S` (stereo not shown) it was 2.59%; in that of `Cc1ccc(C)c(NC(=O)CN(C)C(=O)c2cc([N+](=O)[O-])ccc2N2CCOCC2)c1`, -1.96%; in that of `Cc1cc(OCC(=O)N[C@H](C(=O)O)c2ccccc2)c2c3c(c(=O)oc2c1)CCC3`, 12.1%.

Regarding `Cc1cccc(CNS(=O)(=O)c2ccc(-c3cnc(C4CC4)o3)cc2)c1`, the “hERG current change (%, negative = inhibition) at 10uM” value was 23.3%.

In the case of `O=C(CCS(=O)(=O)c1cccc2nonc12)N1CCCc2ccccc21`, the “hERG current change (%, negative = inhibition) at 10uM” value was -8.24%.

Take `COc1cc(/C=N/NC(=O)CN2CCOCC2)ccc1OCc1ccccc1`: the “hERG current change (%, negative = inhibition) at 10uM” value was found to be 5.45%.

As for `Oc1ccccc1/C=N/Nc1nccnc1Cl`, the “hERG current change (%, negative = inhibition) at 10uM” value is on record as -0.0796%.

Regarding `Cc1ccc(OCC(O)CN2CCN(CCO)CC2)c(C)c1.Cl` (stereo not shown), the “hERG current change (%, negative = inhibition) at 10uM” value was 4.18%. With `CCN(CC)c1ccc(S(=O)(=O)N2CCOCC2)cc1NC(=O)CN1CCc2ccccc2C1` the figure was 1.56%. With `CN(C)CCCNC(=O)CCc1nc2ccccc2c(=O)[nH]1` the figure was -12.2%; with `Cn1c(O)c(C2=c3ccccc3=NC2=O)[nH]c1=S`, 11.8%. With `CSc1nc(NCCCO)c2c3c(sc2n1)CN(C)CC3` the figure was -47.4%; with `Cc1onc(-c2ccccc2)c1NC(=O)Nc1ccc(OC(F)F)cc1`, -37.1%. Turning to `O=C(NNC(=O)C1CCCC1)c1ccccc1F`, the “hERG current change (%, negative = inhibition) at 10uM” value is recorded as 17.3%. With `CC(=O)N1C(C)(C)CC(=NOC(=O)c2ccccc2)CC1(C)C` the figure was 14.6%; with `O=S(=O)(NCc1ccc2c(c1)OCO2)c1cccc2nsnc12`, -21.5%; with `COCCCNC(=O)COc1ccc(S(=O)(=O)NCc2ccccc2)cc1Cl`, -10.6%. In the case of `COc1cc(/C=C2\C(=N)N3N=C(N4CCOCC4)SC3=NC2=O)ccc1OC(=O)c1ccccc1` it was 19.5%. With `COc1ccc(C(=O)Nc2ccc(N3CCN(C(C)=O)CC3)cc2)cc1[N+](=O)[O-]` the figure was 11.7%; with `Cc1ccc(SCC(=O)OCC(=O)NCCC2=CCCCC2)cc1`, 1.77%. Take `CC(C)(C)OC(=O)NCCCCCc1nnc(SCC(=O)Nc2cccc(Cl)c2)o1`: the “hERG current change (%, negative = inhibition) at 10uM” value was -50.7%. In the case of `Cc1ccc(-n2c(SCC(=O)N3CCCCC3)nc(O)cc2=O)cc1` it was 16.1%.

Turning to `O=C(Cc1nnc(NC(=O)Nc2ccc(Cl)cc2)s1)NCc1ccccc1`, the “hERG current change (%, negative = inhibition) at 10uM” value is -0.286%. In the case of `CCCC(=O)N=C1SC2CS(=O)(=O)CC2N1c1ccc(C(C)=O)cc1` (stereo not shown) it was -21.8%; in that of `COc1cc(/C=C/C(=O)OCC(=O)c2c(N)n(C)c(=O)n(C)c2=O)ccc1OC(F)F`, 6.4%.
